Reference: the supplement of paper PMC10369915
The other results are listed elsewhere or left out. Rule as the data show it: active = 3.2 or more and inactive = the rest. The signal is at background level for most entries.

B1: NPHS2_Y195_YF (peptide)
chain: DAICFYRMENA
B2: NPHS2_Y131 (peptide)
chain: KVVQEYERVII
B3: NOG_Y222_W217G (peptide)
chain: GIPIQYPIISE
B4: NR3C1_Y30 (peptide)
chain: DVMDFYKTLRG
B5: NRCAM_Y739_Y739H (peptide)
chain: EASEQHLTKAS
B6: NTN1_Y490_K489E (peptide)
chain: INMKEYCKKDY
B7: NSMF_Y506_L511V (peptide)
chain: QMIETYFDFRV
B8: NOG_Y222_P223L (peptide)
chain: WIPIQYLIISE
B9: NRAP_Y53 (peptide)
chain: HQKKPYCHAHN
B10: NPY1R_Y347_D346Y (peptide)
chain: SRDDYYETIAM
B11: NPC2_Y119 (peptide)
chain: PVKSEYPSIKL
B12: NOG_Y222_Y222C (peptide)
chain: WIPIQCPIISE
B13: NTHL1_Y177_I176T (peptide)
chain: LGKLTYPVGFW
B14: NPSR1_Y147_YF (peptide)
chain: LSIDRYHAIVF
B15: NTN1_Y490_K489E_YF (peptide)
chain: INMKEYCKKDF
B16: NPHS2_Y195_I192V (peptide)
chain: DAVCYYRMENA
B17: NOX1_Y373 (peptide)
chain: AFEQQYSPIPR
B18: NPHS1_Y1138_R1140C_YF (peptide)
chain: TEAEPYFCSLR
B19: NPHS1_Y1138_R1140C (peptide)
chain: TEAEPYYCSLR
B20: NT5C_Y65_P68L (peptide)
chain: KVASVYEALGF
B21: NSMAF_Y626 (peptide)
chain: QLHEHYKIHKE
B22: NSD1_Y1987_R1984Q (peptide)
chain: RAQIRYAQEHD
B23: NSMF_Y506 (peptide)
chain: QMIETYFDFRL
B24: NSA2_Y6_R11C (peptide)
chain: MPQNEYIELHC
B25: NTRK1_Y496 (peptide)
chain: IENPQYFSDAC
B26: NPHS1_Y1139 (peptide)
chain: EAEPYYRSLRD
B27: NPHS2_Y194 (peptide)
chain: IDAICYYRMEN
B28: NOTCH3_Y2221 (peptide)
chain: GHGEEYPAAGA
B29: NOX1_Y373_R378K (peptide)
chain: AFEQQYSPIPK
B30: NPY1R_Y347_D346Y_YF (peptide)
chain: SRDDFYETIAM
B31: NPHS1_Y1139_R1140C_YF (peptide)
chain: EAEPFYCSLRD
B32: NPC1_Y394 (peptide)
chain: RLEKEYFDQHF
B33: NRAP_Y523 (peptide)
chain: KNKLNYTLPQD
B34: NRAP_Y523_N519I (peptide)
chain: KIKLNYTLPQD
B35: NPHS2_Y195_I192V_YF (peptide)
chain: DAVCFYRMENA
B36: NPSR1_Y147_S143G (peptide)
chain: LGIDRYHAIVY
B37: NPSR1_Y147_S143G_YF (peptide)
chain: LGIDRYHAIVF

Molecular target: SHP2 C-SH2 domain E139D
Test: enrichment score (SH2-bound / input frequency) (ratio); bacterial display of known human phosphotyrosine sites (pTyr-Var adds point mutants) read by sequencing; higher = stronger binding; tyrosines were phosphorylated by kinases first
Conditions: peptide library: pTyr-Var
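Also: displayed peptides selected on beads carrying the immobilized SH2 domain, with library peptides lacking any tyrosine serving as negative controls.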

Binder	enrichment score
B1	inactive: 0.939
B2	inactive: 0.896
B3	inactive: 1.26
B4	inactive: 0.802
B5	inactive: 0.519
B6	inactive: 0.928
B7	inactive: 1.68
B8	inactive: 2.36
B9	active: 3.83
B10	inactive: 0.854
B11	inactive: 0.857
B12	inactive: 1.07
B13	inactive: 1.47
B14	inactive: 0.837
B15	inactive: 0.947
B16	inactive: 0.913
B17	inactive: 0.605
B18	inactive: 0.847
B19	inactive: 0.634

Binder	enrichment score
B20	inactive: 1
B21	inactive: 2.01
B22	inactive: 0.508
B23	inactive: 1.68
B24	inactive: 0.885
B25	inactive: 0.714
B26	inactive: 0.585
B27	inactive: 1.04
B28	inactive: 0.51
B29	inactive: 0.647
B30	inactive: 0.745
B31	inactive: 0.698
B32	inactive: 1.11
B33	inactive: 0.706
B34	inactive: 1.07
B35	inactive: 0.909
B36	inactive: 0.789
B37	inactive: 0.593

Molecular target: SHP2 C-SH2 domain wild-type
Test: as above
Conditions: peptide library: pTyr-Var

Binder	enrichment score
B1	inactive: 1.45
B2	inactive: 0.796
B3	inactive: 1.02
B4	inactive: 0.706
B5	inactive: 0.372
B6	inactive: 1.24
B7	inactive: 1.63
B8	inactive: 2.31
B9	active: 3.46
B10	inactive: 0.721
B11	inactive: 0.897
B12	inactive: 1.41
B13	inactive: 1.19
B14	inactive: 0.691
B15	inactive: 0.97
B16	inactive: 1.29
B17	inactive: 0.607
B18	inactive: 0.861
B19	inactive: 0.938

Binder	enrichment score
B20	inactive: 0.904
B21	inactive: 1.91
B22	inactive: 0.432
B23	inactive: 2.07
B24	inactive: 0.706
B25	inactive: 0.7
B26	inactive: 0.49
B27	inactive: 1.28
B28	inactive: 0.416
B29	inactive: 0.516
B30	inactive: 0.764
B31	inactive: 0.809
B32	inactive: 0.929
B33	inactive: 0.805
B34	inactive: 0.846
B35	inactive: 1.15
B36	inactive: 0.753
B37	inactive: 0.6

Molecular target: SHP2 N-SH2 domain L43F
Test: as above
Conditions: peptide library: pTyr-Var

Binder	enrichment score
B1	inactive: 1.05
B2	inactive: 0.814
B3	inactive: 1.09
B4	inactive: 0.642
B5	inactive: 0.549
B6	inactive: 1.01
B7	inactive: 1.61
B8	inactive: 2.92
B9	active: 3.7
B10	inactive: 0.818
B11	inactive: 1.02
B12	inactive: 0.866
B13	inactive: 1
B14	inactive: 0.664
B15	inactive: 0.893
B16	inactive: 0.916
B17	inactive: 0.552
B18	inactive: 0.82
B19	inactive: 0.827

Binder	enrichment score
B20	inactive: 0.981
B21	inactive: 1.86
B22	inactive: 0.485
B23	inactive: 1.72
B24	inactive: 0.758
B25	inactive: 0.688
B26	inactive: 0.546
B27	inactive: 1.1
B28	inactive: 0.502
B29	inactive: 0.929
B30	inactive: 0.687
B31	inactive: 0.588
B32	inactive: 0.969
B33	inactive: 0.742
B34	inactive: 1.03
B35	inactive: 0.825
B36	inactive: 0.673
B37	inactive: 0.75

Molecular target: SHP2 N-SH2 domain T42A
Test: as above
Conditions: peptide library: pTyr-Var

Binder	enrichment score
B1	inactive: 0.963
B2	inactive: 0.643
B3	inactive: 1.05
B4	inactive: 0.497
B5	inactive: 0.473
B6	inactive: 0.867
B7	inactive: 1.4
B8	inactive: 3.04
B9	inactive: 2.83
B10	inactive: 0.628
B11	inactive: 1.22
B12	inactive: 1.06
B13	inactive: 1.44
B14	inactive: 0.941
B15	inactive: 0.728
B16	inactive: 0.93
B17	inactive: 0.547
B18	inactive: 0.712
B19	inactive: 0.644

Binder	enrichment score
B20	inactive: 1.04
B21	inactive: 2.04
B22	inactive: 0.992
B23	inactive: 1.7
B24	inactive: 0.581
B25	inactive: 0.65
B26	inactive: 0.551
B27	inactive: 0.854
B28	inactive: 0.404
B29	inactive: 0.662
B30	inactive: 0.703
B31	inactive: 0.668
B32	inactive: 0.902
B33	inactive: 0.767
B34	inactive: 1.03
B35	inactive: 0.691
B36	inactive: 0.799
B37	inactive: 0.52

Molecular target: SHP2 N-SH2 domain T52S
Test: as above
Conditions: peptide library: pTyr-Var

Binder	enrichment score
B1	inactive: 0.981
B2	inactive: 0.929
B3	inactive: 1
B4	inactive: 0.742
B5	inactive: 0.651
B6	inactive: 0.821
B7	inactive: 1.85
B8	active: 3.65
B9	active: 3.29
B10	inactive: 0.508
B11	inactive: 0.855
B12	inactive: 0.901
B13	inactive: 1.6
B14	inactive: 0.689
B15	inactive: 0.776
B16	inactive: 0.857
B17	inactive: 0.664
B18	inactive: 0.569
B19	inactive: 0.845

Binder	enrichment score
B20	inactive: 0.831
B21	inactive: 2.06
B22	inactive: 0.36
B23	active: 4.53
B24	inactive: 0.823
B25	inactive: 0.627
B26	inactive: 0.596
B27	inactive: 0.851
B28	inactive: 0.451
B29	inactive: 0.638
B30	inactive: 0.796
B31	inactive: 0.66
B32	inactive: 0.859
B33	inactive: 0.876
B34	inactive: 1.19
B35	inactive: 0.787
B36	inactive: 0.684
B37	inactive: 0.676

Molecular target: SHP2 N-SH2 domain wild-type
Test: as above
Conditions: peptide library: pTyr-Var

Binder	enrichment score
B1	inactive: 1.22
B2	inactive: 0.909
B3	inactive: 1.1
B4	inactive: 0.75
B5	inactive: 0.539
B6	inactive: 1.55
B7	inactive: 1.53
B8	inactive: 2.43
B9	active: 3.63
B10	inactive: 0.75
B11	inactive: 1.13
B12	inactive: 1.05
B13	inactive: 1.35
B14	inactive: 0.912
B15	inactive: 1.05
B16	inactive: 1.33
B17	inactive: 0.757
B18	inactive: 0.945
B19	inactive: 0.944

Binder	enrichment score
B20	inactive: 0.961
B21	inactive: 2.04
B22	inactive: 0.422
B23	inactive: 1.96
B24	inactive: 0.668
B25	inactive: 0.755
B26	inactive: 0.79
B27	inactive: 1.49
B28	inactive: 0.51
B29	inactive: 0.646
B30	inactive: 0.812
B31	inactive: 0.998
B32	inactive: 1.18
B33	inactive: 0.807
B34	inactive: 1.2
B35	inactive: 1.16
B36	inactive: 0.841
B37	inactive: 0.838
